Some of the results follow.
How the values were obtained:
Assay in all cases: glycan array binding signal (z-score within array); higher = stronger binding
Conditions in all cases: glycan notation: IUPAC condensed, linker removed
[1] = target: Neu5Ac(a2-6)Gal(b1-4)GlcNAc(b1-3)Gal(b1-4)GlcNAc(b1-3)Gal(b1-4)GlcNAc(b1-2)Man(a1-3)[Neu5Ac(a2-6)Gal(b1-4)GlcNAc(b1-3)Gal(b1-4)GlcNAc(b1-3)Gal(b1-4)GlcNAc(b1-2)Man(a1-6)]GalNAc
In short: (§1)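 Glycan array data came from 3228 arrays in the Consortium for Functional Glycomics database, and only arrays with an available protein sequence were kept. Glycan names were put into IUPAC-condensed notation, and columns mapping to the same glycan were averaged. The binding signal is a within-array Z-score, averaged across arrays of one protein sequence run at different concentrations or buffers and across linkers. A negative Z-score can be read as non-binding.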

[2] = target: Neu5Ac(a2-6)Gal(b1-4)GlcNAc(b1-3)Gal(b1-4)GlcNAc(b1-3)GalNAc
In short: as §1

[3] = target: Neu5Ac(a2-6)Gal(b1-4)GlcNAc(b1-3)Gal(b1-4)GlcNAc(b1-3)[Neu5Ac(a2-6)Gal(b1-4)GlcNAc(b1-3)Gal(b1-4)GlcNAc(b1-6)]GalNAc
In short: as §1

[4] = target: Neu5Ac(a2-6)Gal(b1-4)GlcNAc(b1-3)Gal(b1-4)GlcNAc(b1-6)[Gal(b1-3)]GalNAc
In short: as §1

[5] = target: Neu5Ac(a2-6)Gal(b1-4)GlcNAc(b1-3)Gal(b1-4)[Fuc(a1-3)]GlcNAc(b1-3)Gal(b1-4)[Fuc(a1-3)]GlcNAc
In short: as §1

[6] = target: Neu5Ac(a2-6)Gal(b1-4)GlcNAc(b1-3)GalNAc
In short: as §1

[7] = target: Neu5Ac(a2-6)Gal(b1-4)GlcNAc(b1-3)[Neu5Ac(a2-6)Gal(b1-4)GlcNAc(b1-6)]GalNAc
In short: as §1

[8] = target: Neu5Ac(a2-6)Gal(b1-4)GlcNAc(b1-6)GalNAc
In short: as §1

[9] = target: Neu5Ac(a2-6)Gal(b1-4)GlcNAc(b1-6)[Gal(b1-3)GlcNAc(b1-3)]Gal(b1-4)Glc
In short: as §1

[10] = target: Neu5Ac(a2-6)Gal(b1-4)GlcNAc(b1-6)[Gal(b1-3)]GalNAc
In short: as §1

[11] = target: Neu5Ac(a2-6)Gal(b1-4)GlcNAc6S
In short: as §1

[12] = target: Neu5Ac(a2-6)GalNAc
In short: as §1

[13] = target: Neu5Ac(a2-6)GalNAc(b1-4)GlcNAc
In short: as §1

[14] = target: Neu5Ac(a2-6)GalNAc(b1-4)GlcNAc6S
In short: as §1

[15] = target: Neu5Ac(a2-6)GlcNAc(b1-4)GlcNAc
In short: as §1

[16] = target: Neu5Ac(a2-6)GlcNAc(b1-4)GlcNAc(b1-4)GlcNAc
In short: as §1

[17] = target: Neu5Ac(a2-8)Neu5Ac
In short: as §1

[18] = target: Neu5Ac(a2-8)Neu5Ac(a2-3)Gal(b1-3)GalNAc(b1-4)[Neu5Ac(a2-3)]Gal(b1-4)Glc
In short: as §1

[19] = target: Neu5Ac(a2-8)Neu5Ac(a2-3)Gal(b1-3)GalNAc(b1-4)[Neu5Ac(a2-8)Neu5Ac(a2-3)]Gal(b1-4)Glc
In short: as §1

[20] = target: Neu5Ac(a2-8)Neu5Ac(a2-3)Gal(b1-4)Glc
In short: as §1

[21] = target: Neu5Ac(a2-8)Neu5Ac(a2-3)Gal(b1-4)GlcNAc
In short: as §1

[22] = target: Neu5Ac(a2-8)Neu5Ac(a2-3)[Gal(b1-3)GalNAc(b1-4)]Gal(b1-4)Glc
In short: as §1

[23] = target: Neu5Ac(a2-8)Neu5Ac(a2-3)[GalNAc(b1-4)]Gal(b1-4)Glc
In short: as §1

[24] = target: Neu5Ac(a2-8)Neu5Ac(a2-8)Neu5Ac
In short: as §1

[25] = target: Neu5Ac(a2-8)Neu5Ac(a2-8)Neu5Ac(a2-3)Gal(b1-4)Glc
In short: as §1

[26] = target: Neu5Ac(a2-8)Neu5Ac(a2-8)Neu5Ac(a2-3)[Gal(b1-3)GalNAc(b1-4)]Gal(b1-4)Glc
In short: as §1

[27] = target: Neu5Ac(a2-8)Neu5Ac(a2-8)Neu5Ac(a2-3)[GalNAc(b1-4)]Gal(b1-4)Glc
In short: as §1

[28] = target: Neu5Ac(a2-8)Neu5Ac(a2-8)Neu5Ac(a2-8)Neu5Ac(a2-3)[GalNAc(b1-4)]Gal(b1-4)Glc
In short: as §1

[29] = target: Neu5Ac(a2-8)Neu5Gc(a2-3)Gal(b1-4)GlcNAc
In short: as §1

[30] = target: Neu5Ac(b2-6)Gal(b1-4)GlcNAc
In short: as §1

[31] = target: Neu5Ac(b2-6)GalNAc
In short: as §1

[32] = target: Neu5Ac9Ac(a2-3)Gal(b1-3)GlcNAc
In short: as §1

[33] = target: Neu5Ac9Ac(a2-3)Gal(b1-4)GlcNAc
In short: as §1

[34] = target: Neu5Ac9Ac(a2-6)Gal(b1-4)GlcNAc
In short: as §1

[35] = target: Neu5Gc(a2-3)Gal(b1-3)GlcNAc
In short: as §1

[36] = target: Neu5Gc(a2-3)Gal(b1-3)[Fuc(a1-4)]GlcNAc
In short: as §1

[37] = target: Neu5Gc(a2-3)Gal(b1-4)Glc
In short: as §1

[38] = target: Neu5Gc(a2-3)Gal(b1-4)GlcNAc
In short: as §1

[39] = target: Neu5Gc(a2-3)Gal(b1-4)GlcNAc(b1-3)Gal(b1-4)GlcNAc(b1-2)Man(a1-3)[Neu5Gc(a2-3)Gal(b1-4)GlcNAc(b1-3)Gal(b1-4)GlcNAc(b1-2)Man(a1-6)]Man(b1-4)GlcNAc(b1-4)GlcNAc
In short: as §1

[40] = target: Neu5Gc(a2-3)Gal(b1-4)[Fuc(a1-3)]GlcNAc
In short: as §1

[41] = target: Neu5Gc(a2-6)Gal(b1-4)GlcNAc
In short: as §1

[42] = target: Neu5Gc(a2-6)GalNAc
In short: as §1

[43] = target: Neu5Gc(a2-8)Neu5Ac(a2-3)Gal(b1-4)GlcNAc
In short: as §1

[44] = target: Neu5Gc(a2-8)Neu5Gc(a2-3)Gal(b1-4)GlcNAc
In short: as §1

[45] = target: Neu5Gc(a2-8)Neu5Gc(a2-3)Gal(b1-4)GlcNAc(b1-3)Gal(b1-4)GlcNAc
In short: as §1

[46] = target: Neu5Gc(a2-8)Neu5Gc(a2-6)Gal(b1-4)GlcNAc
In short: as §1

[47] = target: Neu5Gc(b2-6)Gal(b1-4)GlcNAc
In short: as §1

B1: SRA-1 (Homo sapiens), P21757 (protein)
chain: MEQWDHFHNQQEDTDSCSESVKFDARSMTALLPPNPKNSPSLQEKLKSFKAALIALYLLVFAVLIPLIGIVAAQLLKWETKNCSVSSTNANDITQSLTGKGNDSEEEMRFQEVFMEHMSNMEKRIQHILDMEANLMDTEHFQNFSMTTDQRFNDILLQLSTLFSSVQGHGNAIDEISKSLISLNTTLLDLQLNIENLNGKIQENTFKQQEEISKLEERVYNVSAEIMAMKEEQVHLEQEIKGEVKVLNNITNDLRLKDWEHSQTLRNITLIQGPPGPPGEKGDRGPTGESGPRGFPGPIGPPGLKGDRGAIGFPGSRGLPGYAGRPGNSGPKGQKGEKGSGNTLTPFTKVRLVGGSGPHEGRVEILHSGQWGTICDDRWEVRVGQVVCRSLGYPGVQAVHKAAHFGQGTGPIWLNEVFCFGRESSIEECKIRQWGTRACSHSEDAGVTCTL
glycan array binding signal (z-score) [1]: 0.291
glycan array binding signal (z-score) [2]: -0.133
glycan array binding signal (z-score) [3]: 0.583
glycan array binding signal (z-score) [4]: -0.079
glycan array binding signal (z-score) [5]: 0.166
glycan array binding signal (z-score) [6]: -0.285
glycan array binding signal (z-score) [7]: -0.102
glycan array binding signal (z-score) [8]: 0.169
glycan array binding signal (z-score) [9]: -0.443
glycan array binding signal (z-score) [10]: -0.303
glycan array binding signal (z-score) [11]: -0.35
glycan array binding signal (z-score) [12]: 0.158
glycan array binding signal (z-score) [13]: 0.14
glycan array binding signal (z-score) [14]: -0.275
glycan array binding signal (z-score) [15]: -0.304
glycan array binding signal (z-score) [16]: -0.497
glycan array binding signal (z-score) [17]: -0.121
glycan array binding signal (z-score) [18]: -0.069
glycan array binding signal (z-score) [19]: 0.305
glycan array binding signal (z-score) [20]: -0.194
glycan array binding signal (z-score) [21]: 0.077
glycan array binding signal (z-score) [22]: -0.047
glycan array binding signal (z-score) [23]: -0.401
glycan array binding signal (z-score) [24]: -0.212
glycan array binding signal (z-score) [25]: -0.276
glycan array binding signal (z-score) [26]: -0.473
glycan array binding signal (z-score) [27]: -0.262
glycan array binding signal (z-score) [28]: -0.19
glycan array binding signal (z-score) [29]: -0.167
glycan array binding signal (z-score) [30]: -0.254
glycan array binding signal (z-score) [31]: -0.217
glycan array binding signal (z-score) [32]: -0.13
glycan array binding signal (z-score) [33]: -0.604
glycan array binding signal (z-score) [34]: -0.296
glycan array binding signal (z-score) [35]: -0.425
glycan array binding signal (z-score) [36]: -0.292
glycan array binding signal (z-score) [37]: 0.827
glycan array binding signal (z-score) [38]: -0.418
glycan array binding signal (z-score) [39]: 0.684
glycan array binding signal (z-score) [40]: -0.061
glycan array binding signal (z-score) [41]: -0.349
glycan array binding signal (z-score) [42]: 0.135
glycan array binding signal (z-score) [43]: -0.531
glycan array binding signal (z-score) [44]: -0.684
glycan array binding signal (z-score) [45]: -0.164
glycan array binding signal (z-score) [46]: -0.503
glycan array binding signal (z-score) [47]: 0.555
